Measurements: PubChem BioAssay AID1159614 (National Center for Advancing Translational Sciences (NCATS), 2016)
Among all 45,000 compounds or so, about 65 (0.1%) were called active. Calls come from the whole dose curve; as a rule, active = well fitted activation curve with a large enough effect; inconclusive = small, poorly fitted or top-dose-only effect; inactive = no such curve, though single readings can be large or run the other way. This is one part of the list.

Molecular target: Galactocerebrosidase (Homo sapiens) (UniProt P54803)
Experiment: A Novel Cell-Based Assay to Identify Small Molecules for B -Galactocerebrosidase; note: 0% is about no effect; nearly all actives have a fitted effect of over 65% in size
Conditions: 145M-Twi-hGALC-G270D cells (Twitcher mouse brain line with human GALC G270D), HMU-beta-Gal fluorescence, 48 h; series mostly up to 57.5 µM; activation: at the top concentration
How it was run: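 Live 145M-Twi cells (Twitcher mouse brain-derived, GALC-null) stably expressing human GALC-G270D, with a wild-type GALC line, were compound-treated. Residual GALC activity was then read as fluorescence from 0.1 mM final HMU-β-gal at pH 5.2; higher signal means activation.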

Sequence of UniProt P54803 (P54803 whole entry, looked up): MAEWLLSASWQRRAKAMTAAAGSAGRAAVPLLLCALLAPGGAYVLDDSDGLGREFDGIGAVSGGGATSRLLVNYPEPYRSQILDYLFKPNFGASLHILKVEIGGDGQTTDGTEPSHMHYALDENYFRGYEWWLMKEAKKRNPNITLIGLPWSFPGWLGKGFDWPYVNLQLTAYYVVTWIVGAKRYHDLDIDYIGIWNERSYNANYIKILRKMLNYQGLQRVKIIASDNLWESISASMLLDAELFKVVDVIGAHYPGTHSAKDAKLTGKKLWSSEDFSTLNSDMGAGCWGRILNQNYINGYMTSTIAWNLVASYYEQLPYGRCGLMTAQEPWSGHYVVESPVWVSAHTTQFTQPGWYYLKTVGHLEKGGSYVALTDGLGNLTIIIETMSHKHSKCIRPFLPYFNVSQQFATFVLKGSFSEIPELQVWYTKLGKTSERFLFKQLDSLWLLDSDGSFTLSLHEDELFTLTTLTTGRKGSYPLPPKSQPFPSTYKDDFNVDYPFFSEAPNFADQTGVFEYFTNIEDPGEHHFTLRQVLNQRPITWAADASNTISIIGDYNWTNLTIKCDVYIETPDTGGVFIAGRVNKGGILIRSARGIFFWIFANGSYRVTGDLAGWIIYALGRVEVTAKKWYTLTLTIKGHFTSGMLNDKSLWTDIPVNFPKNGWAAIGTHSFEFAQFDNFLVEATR

activation, inactive:
COc1ccc(-c2cn3c(n2)sc2cc(C(=O)Nc4ccccc4F)ccc23)cc1 -9.27%
COc1ccc(-n2c(SCC(=O)N3CCCc4ccccc43)nc3c([nH]c4ccccc43)c2=O)cc1 -15.8%
Cc1ccc(Cn2c(SCc3ccc(C(=O)NCCc4ccccc4)cc3)nc3ccncc32)cc1 -3.16%
CCn1cc(S(=O)(=O)c2cccc(C)c2)c(=O)c2cc(F)c(N3CCCCC3C)cc21 (configuration not stated) -5.41%
Cc1nc(-c2ccc(C)c(N3CCN(C(=O)Nc4ccc(Br)cc4)CC3)c2)no1 -18.2%
COc1ccc(-n2c(=O)c3sc4ccccc4c3n(CC(=O)N3CCCC3)c2=O)cc1 -15.7%
CC(C)(C)OC(=O)N1CCC(c2c(C(=O)Nc3ccc4c(c3)OCO4)cnn2-c2ccc(F)cc2F)CC1 -9.17%
Cc1ccc(CNC(=O)C(=O)NCC(c2cccs2)S(=O)(=O)c2cccs2)cc1 (configuration not stated) -0.293%
Cc1cc(-c2ccc(C)c(S(=O)(=O)N(Cc3cccs3)C(C)C)c2)on1 -7.92%
COc1ccc(NC(=O)/C(C#N)=C/c2ccc(C)o2)cc1 -3.84%
CCc1ccc2occ(CC(=O)Nc3c(C(=O)Nc4ccc(Cl)cc4)oc4ccccc34)c2c1 -14.5%
CN(C)CCNC(=O)c1ccc2nc(CCc3ccccc3)oc2c1 -6.23%
CN(C)c1ccc(NC(=O)Cn2c(SCc3ccc(F)cc3)nc3cccnc32)cc1 22.5%
CCc1ccc(NC(=O)CSC2=Nc3ccccc3C3=NC(CC(=O)NCc4ccc5c(c4)OCO5)C(=O)N23)cc1 (configuration not stated) -10.4%
Cc1ccccc1Cn1c(=O)n(CCCCC(=O)NCCc2ccccc2)c(=O)c2ccccc21 -14.6%
Cc1cccc(NC(=O)CCNS(=O)(=O)c2ccc3c(c2)CCCC(=O)N3)c1C -18.3%
CCOC(=O)c1[nH]c2c(c1Cc1ccccc1)C(=O)CC(c1ccc(OC)cc1)C2 (configuration not stated) -9.12%
O=C(O)CCCC(=O)N1CCc2cc(S(=O)(=O)NCc3ccccc3)ccc21 -8.99%
CCSc1nc2c([nH]c3ccccc32)c(=O)n1-c1ccc(OC)cc1 -8.6%
CCOC(=O)c1ccc(NC(=O)c2cnc(N3CCCC3)nc2C)cc1 -15%
CN(C)c1ccc(CNc2nc(-c3ccco3)nn2S(C)(=O)=O)cc1 -27%
CC1CCCN(c2ncnc3c2nc2n3CCCCC2)C1 (configuration not stated) -9.52%
COCCn1c(SCC(=O)c2ccccc2)nc2cc(C(=O)NC3CCCC3)ccc2c1=O 1.76%
CCc1ccc2nc(N(Cc3cccnc3)C(=O)c3cccs3)sc2c1 -50.1%
CCCC(=O)Nc1ccc(NC(=O)c2sc3ccccc3c2Cl)cc1 -11%
CCCCN(C)CCCNC(=O)Cn1nc(CC)n2c(cc3sc(C)cc32)c1=O -14.8%
Cc1cc2c(cc1C)C(c1cccc(OC(C)C)c1)CC(=O)N2 (configuration not stated) -14.4%
COc1ccc(C(=O)N2CCN(C(=O)COc3ccc(Br)cc3)CC2)cc1OC -12.8%
CCOC(=O)CSC1=Nc2ccccc2C2=NC(CCC(=O)NCc3ccccc3)C(=O)N12 (configuration not stated) 1.13%
CC(=O)c1cccc(NC(=O)c2noc3c2CC(C)CC3)c1 (configuration not stated) -5.15%
COc1ccc(NC(=O)CN(c2cccc(C)c2C)S(=O)(=O)c2ccccc2)cc1OC -2.11%
CCCCNC(=O)C1CCCN(c2nnc(C)c3c(C)n(-c4ccc(Cl)cc4)nc23)C1 (configuration not stated) -8.02%
O=C(CSc1nnc(-c2cccs2)o1)Oc1ccc(Cl)cc1 -10.1%
COc1cc2c(=O)c(S(=O)(=O)c3ccc(C)cc3)cn(Cc3cccc(C)c3)c2cc1OC -5.8%
CC1CN(C(=O)N2CCC(C(=O)NCCC3=CCCCC3)CC2)c2ccccc2O1 (configuration not stated) -8.14%
CCN(CC)CCN(C(=O)c1ccc(C(=O)OC)cc1)c1nc2ccc(Cl)cc2s1 -5.17%
CCOC(=O)C1(C)C=C(Nc2ccc(C)cc2)C(=O)N1c1ccccc1 (configuration not stated) -16.8%
CC(C)c1ccc(S(=O)(=O)Nc2ccc(O)c(Sc3nc4ccccc4s3)c2)cc1 -38.2%
CC(=O)c1ccc(NC(=O)CSc2nccn2Cc2ccco2)cc1 -7.17%
CSc1cccc(NC(=O)C2CCN(S(=O)(=O)c3ccc4[nH]c(=O)ccc4c3)CC2)c1 -3.36%
COc1ccc(CNC(=O)Cc2ccc(NC(=O)N3CCCCc4ccccc43)cc2)cc1 -12.9%
CCOc1ccc(NC(=O)c2cc(S(=O)(=O)N3CCC(C)CC3)cn2C)cc1 0.652%
CC1CCCN(c2ncnc3c2nnn3C)C1 (configuration not stated) -5.71%
CCC1CN(C(=O)N2CCC(C(=O)NCc3ccccc3F)CC2)c2ccccc2O1 (configuration not stated) 2.31%
CCCOC(=O)c1cccc(Nc2nc(C(=O)OCC)nc3ccccc23)c1 -1.52%
O=C(Nc1ccc(C(F)(F)F)cc1)C1(c2cccs2)CCOCC1 -12.1%
Cc1cc(C)cc(NC(=O)c2cc(S(=O)(=O)N3CCCCC3)c[nH]2)c1 -10.9%
CC(Oc1ccccc1F)C(=O)NCC1(N2CCOCC2)CCCCC1 (configuration not stated) 16.5%
Cc1ccc(NC(=O)c2c(C)oc3ncnc(N4CCCCC4)c23)c(C)c1 1.22%
Cc1ccc(-c2nn3c(C)nnc3c3ccccc23)cc1S(=O)(=O)NC(C)(C)CO -17.1%
COc1cccc(CNC(=O)Nc2ccc3c(c2)N(C)C(=O)c2ccccc2S3)c1 11.5%
Cc1ccccc1NC(=O)C1CCN(S(=O)(=O)c2cccc3nonc23)CC1 4.88%
COc1ccc(CNC(=O)C2CCN(c3nnc(C)c4c(C)n(-c5ccc(C)cc5)nc34)CC2)cc1 -9.21%
CCc1ccc(NC(=O)c2sc3nc(C)cc(C)c3c2NC(=O)c2ccccc2)cc1 -25.8%
COc1ccc(/C=C/C(=O)Nc2cccc(F)c2)cc1 -8.33%
CN(C)S(=O)(=O)c1ccc2c(c1)N(CC(=O)N1CCC(C(N)=O)CC1)CCS2 -13.4%
Cc1ccc(C)c(NC(=O)Cn2cc(S(=O)(=O)c3ccc(F)cc3)c(=O)c3cc(F)ccc32)c1 -14.8%
O=C(Nc1nnc2n1CCS2)c1cc(C(F)(F)F)cc(C(F)(F)F)c1 -9.28%
CCOc1ccc(N(C)S(=O)(=O)c2cc(-c3cnc(C)o3)ccc2OC)cc1 -2.93%
COc1ccc(-c2cc(C(F)(F)F)n3nc(C(=O)Nc4ccc(Cl)cc4C(F)(F)F)cc3n2)cc1OC -13.7%
Cc1cccc(C)c1NC(=O)Cn1c(=O)n(CCC(=O)NCc2ccc3c(c2)OCO3)c(=O)c2sccc21 -6.7%
COc1ccc(C(=O)N2CCN(CCc3ccccn3)CC2)cc1 -18.8%
Cc1ccc(NC(=O)C2CCCN(c3nc4ccccc4s3)C2)c(C)c1 (configuration not stated) -2.2%
Cc1ccc(NC(=O)c2cnc(SCC(=O)N3CCCc4ccccc43)n(C)c2=O)cc1C -7.41%
Cc1oc(-c2ccccc2)nc1Cn1c(=O)cc(-c2ccccc2)c2c(C)nn(C)c21 -12.9%
COc1ccc(OCC(=O)Nc2ccc3c(c2)N(C)C(=O)c2ccccc2S3)cc1 -10.8%
CCn1c(=O)c2cc(C(=O)NCCc3ccc(OC)c(OC)c3)sc2c2ccccc21 -9.92%
Cc1ccc2nc(Cl)c3cc(C(=O)N4CCCC(C)C4)sc3c2c1 (configuration not stated) -7.88%
COc1ccc(-c2cc(C(=O)Nc3c(C(=O)c4ccc(C)c(F)c4)oc4ccccc34)no2)cc1 3.58%
CCOc1ccc(CNC(=O)c2ccc(Sc3ccc(C)cc3)c(N)c2)cc1OC -0.111%
CC(C)CN(CC(C)C)c1nnc(NC(=O)Nc2cccc(C(F)(F)F)c2)s1 -15%
CC1=C(C(=O)Nc2ccc(C)cc2C)C(c2cc(Br)ccc2F)n2ncc(C(=O)Nc3ccc(C)cc3)c2N1 (configuration not stated) -14.2%
COc1ccc(-c2cc(C(F)(F)F)n3nc(C(=O)Nc4cccc(Cl)c4Cl)cc3n2)cc1OC -1.83%
CCOC(=O)c1cc(-c2ccc(C)cc2)n(CC(=O)Nc2cc(C)ccc2C)c1C -12%
CCc1ccccc1NC(=O)c1cc(S(=O)(=O)N2CCC(C)CC2)cn1C -3.85%
O=C(CCS(=O)(=O)c1nc(-c2ccc3c(c2)OCO3)cc(C(F)(F)F)n1)Nc1ccccc1C(F)(F)F -0.626%
COC(=O)Cn1c(SCCOc2ccccc2Cl)nc2ccccc21 0.338%
COC(=O)CSc1nnc(-c2cccc(O)c2)o1 -11.3%
COc1ccc(C(C)=O)cc1CSc1nc(NCc2ccc(Cl)cc2)c2ccccc2n1 -5.4%
Cc1ccc(S(=O)(=O)N2CCC(c3nnc(-c4cccc(C)c4)o3)CC2)cc1 -4.32%
CCOc1ccc(CNC(=O)CCc2c(C)nn(-c3ccc(N4CCOCC4)nn3)c2C)cc1 -5.1%
Cc1ccc(SCC(=O)Nc2ccc3oc(-c4ccc(F)cc4)nc3c2)cc1 -13.3%
CCc1ccc(CNC(=O)c2ccc(NC(=O)N3CCSc4ncccc43)cc2)cc1 -9.58%
CCc1nc2nc(C)cc(Nc3cc(Cl)ccc3OC)n2n1 -27.6%
COc1ccc(C(=O)NCc2nnc(SCC(=O)Nc3ccc(C)cc3)n2-c2ccccc2)cc1 -15.5%
Cc1ccc(S(=O)(=O)c2nc(-c3ccco3)oc2SCC(=O)c2ccc(Cl)cc2)cc1 -12.9%
CCOc1ccc(Nc2cc(C)c(C#N)c3nc4ccccc4n23)cc1 -8.61%
Cc1cccc(N(C)C(=O)CS(=O)(=O)c2cccc3nsnc23)c1 -13.9%
Cc1ccc(C(C)C)c(OCc2ccc(C(=O)Nc3ccc(S(N)(=O)=O)cc3C)o2)c1 -19.6%
COc1cccc(CNC(=O)c2ccc3c(Cl)c4c(nc3c2)CCCC4)c1 -1.46%
CC(C)NC(=O)Cn1c(=O)nc(-c2ccccc2)c2ccccc21 -3.87%
CCOc1ccc(CCNC(=O)c2ccc(C)c(-n3cnc4cccnc43)c2)cc1 -8.66%
Cc1nc(-n2nc(C)c(CCC(C)C)c2C)sc1C(=O)Nc1cccc(Cl)c1C -4.3%
CCOC(=O)c1c(NC(=O)c2ccccc2C)sc2c1CCCC2 -17.8%
O=C(CN1C(=O)COc2ccc(S(=O)(=O)N3CCCC3)cc21)NCCc1ccc(Cl)cc1 -23.3%
CCCCN(CCCC)C(C(N)=O)c1ccc(OC)cc1 (configuration not stated) -7.31%
O=C(OCc1ccco1)c1ccc2c(c1)N(Cc1ccc([N+](=O)[O-])cc1)C(=O)c1ccccc1S2 -9.69%
